According to PubChem BioAssay AID1745853 (National Center for Advancing Translational Sciences (NCATS), 2022):
The list shows a part of the results. Shown are side measurements of this screen, not its main read-out; they come without a call.

What was measured:
Test in all cases: Primary Screen for Target Class Profiling of Small Molecule Inhibitors of Methyltransferases
[1] = target: Glycine N-methyltransferase (Homo sapiens) (UniProt Q14749); conditions: purified enzyme, MTase-Glo SAH luminescence; measured here: GNMT inhibition; at 40 µM; stronger effect = lower value
Summary of the method: (§1)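 Each enzyme was reacted with SAM and its substrate, with compounds tested once at 40 uM; SAH formed was read by MTase-Glo luminescence.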

[2] = target: Guanidinoacetate N-methyltransferase (Homo sapiens) (UniProt Q14353); conditions: purified enzyme, MTase-Glo SAH luminescence; measured here: GAMT inhibition; at 40 µM; stronger effect = lower value
Summary of the method: as §1

[3] = target: Histamine N-methyltransferase (Homo sapiens) (UniProt P50135); conditions: purified enzyme, MTase-Glo SAH luminescence; measured here: HNMT inhibition; at 40 µM; stronger effect = lower value
Summary of the method: as §1

[4] = target: Nicotinamide N-methyltransferase (Homo sapiens) (UniProt P40261); conditions: purified enzyme, MTase-Glo SAH luminescence; measured here: NNMT inhibition; at 40 µM; stronger effect = lower value
Summary of the method: as §1

[5] = target: Phenylethanolamine N-methyltransferase (Homo sapiens) (UniProt P11086); conditions: purified enzyme, MTase-Glo SAH luminescence; measured here: PNMT inhibition; at 40 µM; stronger effect = lower value
Summary of the method: as §1
On the % scale 0 is the no-effect control and ±100 the full control effect.

Compound	activity change, negative = inhibition [1]	activity change, negative = inhibition [2]	activity change, negative = inhibition [3]	activity change, negative = inhibition [4]	activity change, negative = inhibition [5]
Cc1ccc(Cl)c(Nc2ccccc2C(=O)O)c1Cl	-10.2%	12.8%	11.5%	-11.7%	0.493%
Cc1ccc(CNC(=O)CCc2nnc3n(Cc4ccccc4)c(=O)c4ccccc4n23)cc1	-6.53%	0.176%	9.34%	2.98%	3.16%
COc1ccc2c(c1)c(NC(C)=O)c1n2CC(C)(C(=O)NC2CCCC2)N(Cc2cccs2)C1=O (stereo not given)	-9.94%	0.111%	0.908%	5.33%	-0.577%
CC(=O)OC1C(OC(=O)c2ccccc2)C2C(=C(C)CCC2(C)C)C23CCC(C)(C2)C(=O)CC13 (stereo not given)	3.21%	-1.73%	6.29%	-15.6%	2.45%
COc1cccc(COC2CN(CCc3ccccc3)C(=O)CN(C(=O)CN3CCOC3=O)C2)c1 (stereo not given)	-5.46%	-5.96%	-3.55%	-10.3%	-11%
CN1C(=O)c2ccccc2-n2c(nc3ccccc3c2=O)/C1=C/c1ccccc1	3.6%	6.55%	5.99%	-9.55%	5.92%
Cc1noc(-c2cn(C3CCN(C(=O)c4ccc(C)s4)CC3)nn2)n1	-4.21%	-1.54%	0.947%	-4.42%	12.1%
CC(=O)O[C@@H](C[C@@H]1C=C(C)C(=O)O1)[C@H](C)[C@H]1CCC2[C@@]3(C)CC[C@H](O[C@@H]4O[C@H](CO)[C@@H](O)[C@H](O)[C@H]4O[C@@H]4O[C@@H](C)[C@H](O)[C@@H](O)[C@H]4O)C(C)(C)C3CC[C@@]2(C)[C@@]12COC(=O)C2 (stereo not given in full)	-7.31%	-7.53%	0.314%	-18.1%	-12.1%
COc1ccccc1NC(=O)Cn1nc2n(Cc3ccc(C)cc3)c(=O)c3ccccc3n2c1=O	2.72%	0.932%	6.5%	-1.4%	2.12%
COC(=O)c1ccc([C@@H]2Nc3c(OC)cc(OC)cc3[C@@H]3C=CC[C@@H]32)cc1	-5.33%	0%	2.08%	-12.5%	-7.28%
CC(C)OCCCNC(=O)CCc1nnc2ccc(NCc3ccccc3Cl)nn12	-4.39%	1.03%	0.936%	-3.65%	-1.58%
CN(C)CC(O)c1cc2n(n1)CCCN(C(=O)c1cccn1C1CC1)C2 (stereo not given)	-3.85%	-3.37%	-2.33%	-3.38%	-2.13%
CC1(C(=O)NC2CCCCCC2)Cn2c(ccc2-c2ccco2)C(=O)N1Cc1cccnc1 (stereo not given)	-3.72%	0.18%	6.26%	0.946%	0.511%
CCCn1c(=O)c2ccc(C(=O)NC3CCCC3)cc2n2c(=O)n(C(C)C(=O)c3ccc(C)c(C)c3)nc12 (stereo not given)	-1.58%	3.35%	-0.24%	-4.98%	-3.35%
Cc1ccc(CN2CC(=O)N(Cc3ccc(F)cc3)c3ccccc3S2(=O)=O)cc1	7.58%	0%	12.6%	-8.63%	-3.56%
CCCNC(=O)N1CCOC[C@H](Oc2ccc(C(F)(F)F)cn2)C1	-4.05%	-3.77%	-1.54%	-11.9%	-9.93%
COC(=O)c1ncn2c1C(=O)N(Cc1ccco1)C(C)(C(=O)NC1CCCCCC1)C2 (stereo not given)	3.31%	0%	8.11%	6.63%	4.7%
O=S(=O)(Cc1cccc(Cl)c1)NCCc1noc(-c2ccccc2)n1	-5.08%	-5.23%	-4.92%	-10.7%	-7.91%
CC1(C(=O)NC2CCCCCC2)Cn2c(ccc2-c2ccco2)C(=O)N1Cc1cccc(Cl)c1 (stereo not given)	-1.69%	0%	1.92%	-3.59%	-1.84%

Compound	activity change, negative = inhibition [1]	activity change, negative = inhibition [2]	activity change, negative = inhibition [3]	activity change, negative = inhibition [4]	activity change, negative = inhibition [5]
O=C(NCc1nnc2n1CCCCC2)C1CC2(CCNCC2)CN1 (stereo not given)	1.18%	0.891%	0.798%	3.25%	-0.279%
CCN1CCN(C(=O)c2cc3n(n2)CC(C)(C(=O)NCc2ccccc2)N(C)C3=O)CC1 (stereo not given)	3.29%	4.04%	6.58%	3.84%	1.56%
CCCN1C(=O)c2c(C(=O)NCc3ccccc3OCC)ncn2CC1(C)C(=O)NCc1ccc(F)cc1 (stereo not given)	3.91%	0.992%	4.3%	0.727%	11.3%
Cc1ccc(Cn2c(=O)c3ccccc3n3c(-c4ccc(O)cc4)nnc23)cc1	-11.1%	4.07%	5.76%	0.401%	-2.94%
O=C(c1cn(Cc2cncn2Cc2ccc(Br)cc2)cc1-c1cccc2ccccc12)N1CCOCC1	-6.98%	-7.86%	-9.62%	-41.8%	-7.86%
O=C(c1ccccn1)N1CC(F)(F)C[C@H]1c1nc(-c2ncccn2)no1	-9.67%	2.06%	3.04%	-3.29%	12.5%
Cn1c(CNC(=O)CC2CCN(S(C)(=O)=O)C2)nc2ccccc21 (stereo not given)	-1.01%	1.68%	0.122%	-0.37%	-4.02%
CCN1C(=O)N(Cc2cccc(OC)c2)C(=O)C12CCN(Cc1nc3ccccc3n1C)CC2	-0.648%	-4.29%	-2.04%	-13.5%	-4.82%
CC(C)Cn1c(=O)c2ccc(C(=O)NC(C)C)cc2n2c(=O)n(CC(N)=O)nc12	-4.78%	0.774%	-1.8%	-5.82%	-1.76%
COCC1CN(C(=O)c2ccc(OC)nc2OC)CC12CCNCC2 (stereo not given)	-10.8%	-11.4%	-2.88%	-12.9%	-12.3%
CC1CCCCC1NC(=O)Cn1c(=O)oc2cc(S(=O)(=O)N3CCCC3)ccc21 (stereo not given)	-9.86%	0.827%	-1.6%	-2.2%	-11.1%
CC1CC2OCC3(O)CCC(O)C(C14CC(c1ccoc1)OC4=O)C23CO (stereo not given)	-0.775%	0.382%	-0.666%	-10.8%	5.98%
CN1C(=O)c2cc3ccccc3n2CC1(C)C(=O)NCC(=O)NCCc1ccc(Cl)cc1 (stereo not given)	-0.388%	0.239%	1.69%	4.31%	0.581%
CCOc1ccccc1CN1C(=O)c2cc3ccc(OC)cc3n2CC1(C)C(=O)NC1CCCC1 (stereo not given)	5.32%	3.24%	6.06%	6.52%	1.79%
Cc1ccc(NC(=O)CSc2nnc3n(Cc4ccccc4)c(=O)c4ccccc4n23)c(C)c1	-2.51%	-1.92%	3.13%	-1.27%	-3.06%
Cc1ccc(CCNC(=O)Cn2ccc3cc(S(=O)(=O)N4CCCCC4)ccc32)cc1	9.27%	1.08%	7.42%	6.55%	3.85%
C=CCn1c(=O)c2ccc(C(=O)NC(C)CC)cc2n2c(=O)n(CC(=O)Nc3cccc(C)c3)nc12 (stereo not given)	5.73%	0%	5.04%	4.16%	1.51%
CCC1c2ccc(C)n2CCN1C(=O)Nc1cccc(Cl)c1 (stereo not given)	-11.1%	4.98%	-4.72%	-9.62%	-6.21%
